In all, about 33,000 sequences were measured (“E-score (-0.5 to 0.5)”: median about -0.043, highest 2% from about 0.37 on). The list shows a part of the results.
What follows are sequences tested against T1, Upc2 (UniProt Q12151) (assay: PBM E-score (8-mer binding enrichment) (E-score (-0.5 to 0.5)); higher = stronger / more preferred TF binding; most listed sequences are background and not binding sites). Conditions: protein concentration: 200 nM; construct: GST-full length.
T1 sequence: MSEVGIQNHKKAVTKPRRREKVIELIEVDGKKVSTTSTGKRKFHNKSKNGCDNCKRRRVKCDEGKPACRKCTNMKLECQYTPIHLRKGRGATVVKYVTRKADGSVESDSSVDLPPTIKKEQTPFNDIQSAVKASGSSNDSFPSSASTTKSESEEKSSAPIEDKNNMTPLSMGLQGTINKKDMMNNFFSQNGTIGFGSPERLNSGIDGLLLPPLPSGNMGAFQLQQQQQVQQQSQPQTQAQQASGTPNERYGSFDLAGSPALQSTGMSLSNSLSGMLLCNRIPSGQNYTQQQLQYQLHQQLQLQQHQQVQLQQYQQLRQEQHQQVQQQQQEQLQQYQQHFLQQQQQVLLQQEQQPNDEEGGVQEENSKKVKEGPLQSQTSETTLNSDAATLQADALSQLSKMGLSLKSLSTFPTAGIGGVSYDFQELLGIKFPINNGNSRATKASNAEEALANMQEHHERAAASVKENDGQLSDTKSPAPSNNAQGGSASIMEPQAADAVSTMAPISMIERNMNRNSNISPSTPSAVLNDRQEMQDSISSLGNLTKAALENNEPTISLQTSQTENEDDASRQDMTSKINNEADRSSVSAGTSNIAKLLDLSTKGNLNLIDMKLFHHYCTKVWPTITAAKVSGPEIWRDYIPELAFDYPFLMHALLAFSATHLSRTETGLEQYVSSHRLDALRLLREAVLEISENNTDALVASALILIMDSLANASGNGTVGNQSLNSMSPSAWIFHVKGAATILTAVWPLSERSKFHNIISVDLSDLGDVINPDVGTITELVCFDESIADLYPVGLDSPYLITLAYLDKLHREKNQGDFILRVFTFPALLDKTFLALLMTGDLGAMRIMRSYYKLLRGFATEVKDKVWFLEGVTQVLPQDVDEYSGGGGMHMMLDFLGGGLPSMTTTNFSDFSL
In short: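 Universal all-10-mer Agilent arrays, fresh or stripped once, were converted to double-stranded form by primer extension. GST-tagged yeast transcription factors from PURExpress in vitro transcription/translation, full-length or DNA-binding domain only, were applied at about 100-200 nM and detected with fluorescent anti-GST. After masliner normalisation, the Universal PBM Analysis Suite scored each ungapped eight-base word together with its reverse complement by E-score.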

Sequence	PBM E-score
GTGGGAAC	0.0114
GGCGCCAC	-0.183
CAGCTTCC	-0.0992
CATCGATA	0.0768
AGGGATCG	0.0387
CACCTCAG	-0.267
CAAGGCCA	-0.124
CGTGAGGC	-0.103
GGCGGGAA	-0.084
ACGACTAT	0.317
CTCATCCC	-0.0444
ACCGCCCT	-0.193
CAGATTGC	-0.0173
TGGATACA	-0.144
AAAGTAAG	0.101
CATCGGGC	-0.142
ACGACTAA	0.31
GCCAGCAA	-0.305
GGCGGACC	-0.241
CCCGTTGA	-0.0205
CTAAACAC	0.037
CGAAAAGC	0.0599
CCATTCGC	-0.0819
TGTCGTAA	0.433
CCCGTGTC	-0.181

Sequence	PBM E-score
CAGAGGAA	-0.193
ATTTAGTC	-0.104
GCCAACTA	-0.194
ATCGTAAC	0.372
ACGGTGGG	0.134
CGGTACCG	0.185
GGCTTTTA	-0.157
GCTGGTCC	-0.278
AATATGTC	0.0189
CGCGAGGA	0.0412
ACTTGTAA	-0.187
AAATAAGC	0.0192
CACGGTCG	-0.0714
TCTAGGCA	-0.287
CTGTCTAA	-0.0102
TCCAAGCA	-0.14
GATTCCGC	-0.144
AGTAAAGG	-0.0961
AGAGGTGG	-0.166
CACGCGAG	0.11
GAGCAGAC	-0.028
TGACAACA	-0.113
ACTAGGCC	-0.138
CCGTAAGG	0.141
GTTAGATA	-0.00175

Sequence	PBM E-score
CACATGCC	-0.264
ACTCGCAT	0.28
CTTGGGGA	-0.219
CACCTCAA	-0.0698
ATGACATC	-0.117
CCCTAGGG	-0.34
CTTGCCAA	0.0377
TTCAGGAA	0.0763
AAAGACCA	-0.122
GGAACCTA	-0.229
ACTGAATG	0.0183
CGCCTACG	0.115
TGACCAAA	0.0238
ATTAGGCG	-0.0218
AATAATCT	0.00322
ATGAACGA	0.459
ATTAAACA	-0.0789
AATATCTA	-0.106
GGTGACGA	0.0255
CAGCTCCC	-0.144
GAACCTCC	0.0995
CCCCGCCG	0.00745
GAGTTGTA	-0.0461
CATTAACA	0.0699
CGACTGAG	0.0282

Sequence	PBM E-score
AGTGGAAT	-0.153
ATAACTTA	0.00349
ACCGCTGC	-0.101
CATTGTAA	0.0139
CATCATGA	-0.211
ACGACTCC	0.273
AACCGCAG	-0.173
CCTAACGC	0.0449
CATCAGTA	-0.0377
AGCTGAAT	0.0205
CGTTCCTC	0.339
AACCGAGG	0.269
CACTGTTA	-0.0686
CTGACCTA	0.00047
GGAGGGCC	-0.201
ACCACACA	-0.0224
ACAGCTGC	-0.0946
ATGATTGA	0.0994
ATAACCTG	0.0193
AAATTGTT	-0.0484
CCACGCAC	-0.152
ATATGGTC	0.116
ATCTGCCA	-0.132
CTCGCTTA	0.423
ATACCTCG	0.18

Sequence	PBM E-score
CCTATCGC	-0.049
AAGCGGGC	-0.0233
AAGTCGCA	0.193
CCATAAGC	-0.161
AGACGGCA	-0.162
ATGGCGCC	-0.194
AATCGCGA	0.189
TATGTCAA	0.0594
CCGATCCG	0.0946
ACTCGACC	-0.0381
ATAGATAA	0.0449
CACTGTAG	0.0248
CAGCACTG	-0.255
GGCAAGGA	-0.205
CCGGTAAA	0.0784
AAGAGAGC	-0.107
GATTGACA	-0.0586
AGGGTCTG	-0.308
AGTCTAAT	-0.11
CAGACCAG	-0.0598
CCTGTGCA	0.00225
AGACATTC	-0.073
CCAAAGAA	-0.083
AGAGCGCC	-0.0864
AGTACCGA	-0.0766

Sequence	PBM E-score
GCCACAAC	-0.0129
CCACAGGC	-0.376
AGCCATCG	0.0752
GACTGATC	-0.118
AAGCCCGC	-0.0467
ACGAGCCA	0.408
GATTGACC	-0.102
ACGAGGAG	0.306
AAGTGGGC	0.131
AAAAGTTT	0.0687
CGACCTCA	0.00368
CCCTACGA	0.245
ATGAACCA	-0.124
ATCAGCAT	-0.191
CCCAGAGA	-0.123
AATATACC	-0.0163
ACCATACC	-0.0989
CATGTGTC	-0.0516
CAACATTA	-0.0706
ATACCAAG	-0.0264
ACGTCGAC	0.118
ACCACTCT	-0.125
ACTCCTAC	-0.179
AGACTCGG	-0.222
CTGCCCAC	-0.198

Sequence	PBM E-score
GCATAAGC	-0.043
CCGTGGAA	-0.176
CCTGGCAG	-0.198
CCCTAACC	-0.165
TATGCTGA	-0.124
ACTGCAAA	-0.072
TGCGAGAA	0.129
CCTACTAA	-0.14
ACTTATCG	0.00736
CCGGTTCC	-0.144
CGAGCCCG	0.131
TAACTGAA	-0.0941
TTAGAAAA	-0.129
ACTTTTCG	0.194
CTGAGCTA	-0.0866
GCAGTGCA	-0.0741
ACCACGGA	-0.185
CACTTGTA	-0.0805
GTCAGCTA	-0.0445
GTATGGCA	0.185
CAGTATCA	-0.137
ATGCCACG	-0.18

Reference: the supplement of paper PMC3334620
